Reference: the supplement of paper PMC6609913
Where a name gives a salt, the structure may show the parent alone. ± gives the standard deviation of the averaged measurements. The full ranking holds about 1,300 compounds; the median of “normalised cell viability” is about 1, and the lowest 2% start at about 0.15. The list shows a part of the results.

System: V-C8 + BRCA2 (BRCA2-proficient hamster cells)
Test: normalised cell viability (fraction of plate median); higher = more viable cells (less toxic)
Conditions: 5 µM
In short: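 Library drugs, held as 10 mM stocks in DMSO, were diluted to 5 μM in 100 μl medium and added to 96-well plates of V-C8 hamster cells, either lacking BRCA2 or with BRCA2 restored, 24 h after seeding. Plates ran for 3 days (screen 1) or 6 days (screen 2), alongside solvent-only wells. Viability came from a resazurin readout, median-plate normalised, as the mean of triplicate wells.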

Compound | normalised cell viability (treatment time: 3 days) | normalised cell viability (treatment time: 6 days)
NS(=O)(=O)c1cc(C(=O)O)c(NCc2ccco2)cc1Cl [Furosemide] | 1.1 ± 0.027 | 1.08 ± 0.072
NC(=O)c1ncn([C@@H]2O[C@H](CO)[C@@H](O)[C@H]2O)n1 [Ribavirin] | 0.614 ± 0.068 | 0.517 ± 0.028
CCOc1ccc2c(c1)C(C)=CC(C)(C)N2 [Ethoxyquin] | 0.823 ± 0.025 | 1.05 ± 0.14
CCOC(=O)[C@H](CCc1ccccc1)N[C@@H](C)C(=O)N1[C@H](C(=O)O)C[C@@H]2CCC[C@@H]21 [Ramipril] | 1.05 ± 0.073 | 1.04 ± 0.049
CC(C)COCC(CN(Cc1ccccc1)c1ccccc1)N1CCCC1 (stereo not drawn) [Bepridil hydrochloride] | 0.938 ± 0.069 | 0.828 ± 0.035
NS(=O)(=O)c1cc2c(cc1Cl)N=CNS2(=O)=O [Chlorothiazide] | 1.16 ± 0.04 | 1.05 ± 0.045
CNS(=O)(=O)Cc1ccc2[nH]cc(CCN(C)C)c2c1 [Sumatriptan succinate] | 1.05 ± 0.03 | 0.992 ± 0.031
CN[C@H](CC(C)C)C(=O)N[C@H]1C(=O)N[C@@H](CC(N)=O)C(=O)N[C@H]2C(=O)N[C@H]3C(=O)N[C@H](C(=O)N[C@H](C(=O)O)c4cc(O)cc(O)c4-c4cc3ccc4O)[C@H](O)c3ccc(c(Cl)c3)Oc3cc2cc(c3O[C@@H]2O[C@H](CO)[C@@H](O)[C@H](O)[C@H]2O[C@H]2C[C@](C)(N)[C@H](O)[C@H](C)O2)Oc2ccc(cc2Cl)[C@H]1O [Vancomycin hydrochloride] | 0.177 ± 0.0067 | 0.17 ± 0.018
Cc1nnc(NS(=O)(=O)c2ccc(N)cc2)s1 [Sulfamethizole] | 1.21 ± 0.32 | 1.05 ± 0.042
CCN1CCC[C@H]1CNC(=O)c1c(OC)ccc(Br)c1OC [Remoxipride Hydrochloride] | 0.999 ± 0.016 | 1.05 ± 0.019
CCN1CCN(c2cc3c(cc2F)c(=O)c(C(=O)O)cn3C2CC2)CC1 [Enrofloxacin] | 1 ± 0.021 | 1.03 ± 0.039
CC1CC(OC(=O)C(O)c2ccccc2)CC(C)(C)N1C (stereo not drawn) [Eucatropine hydrochloride] | 0.865 ± 0.012 | 0.848 ± 0.093
Cc1cnc(NC(=O)C2=C(O)c3ccccc3S(=O)(=O)N2C)s1 [Meloxicam] | 1.15 ± 0.053 | 1.04 ± 0.046
O=C(O)COC(=O)Cc1ccccc1Nc1c(Cl)cccc1Cl [Aceclofenac] | 0.991 ± 0.016 | 0.987 ± 0.021
O=C(O)/C=C/c1ccc(Cn2ccnc2)cc1 [Ozagrel hydrochloride] | 1.03 ± 0.04 | 0.995 ± 0.022
CCCc1nc(C)c2c(=O)nc(-c3cc(S(=O)(=O)N4CCN(CC)CC4)ccc3OCC)[nH]n12 [Vardenafil] | 1.03 ± 0.025 | 1.012 ± 0.0041
Cc1cc(/C=C/c2ccc3cc(N(C)C)ccc3[n+]2C)c(C)n1-c1ccccc1 [Pyrvinium pamoate] | 0.144 ± 0.0086 | 0.171 ± 0.014
CCn1nc(C(=O)O)c(=O)c2cc3c(cc21)OCO3 [Cinoxacin] | 0.997 ± 0.054 | 0.918 ± 0.081
COCCOC(=O)C1=C(C)NC(C)=C(C(=O)OC/C=C/c2ccccc2)C1c1cccc([N+](=O)[O-])c1 (stereo not drawn) [Cilnidipine] | 0.973 ± 0.054 | 0.969 ± 0.071
CCCCNc1ccc(C(=O)OCCOCCOCCOCCOCCOCCOCCOCCOCCOC)cc1 [Benzonatate] | 0.956 ± 0.05 | 1 ± 0.024

Compound | normalised cell viability (treatment time: 3 days) | normalised cell viability (treatment time: 6 days)
COC(=O)Nc1nc2ccc(SC(C)C)cc2[nH]1 [Methiazole] | 0.231 ± 0.016 | 0.245 ± 0.017
O=C(NCCO[N+](=O)[O-])c1cccnc1 [Nicorandil] | 1.11 ± 0.072 | 1.11 ± 0.13
C=C1/C(=C\C=C2/CCC[C@]3(C)[C@@H]([C@H](C)/C=C/[C@@H](O)C4CC4)CC[C@@H]23)C[C@@H](O)C[C@@H]1O [Calcipotriene] | 0.919 ± 0.033 | 0.918 ± 0.039
Cc1ccc(Cl)c(Nc2ccccc2C(=O)O)c1Cl [Meclofenamic acid sodium salt monohydrate] | 1.02 ± 0.068 | 1.08 ± 0.084
CCN1CCN(C(=O)N[C@@H](C(=O)N[C@@H]2C(=O)N3C(C(=O)O)=C(CSc4nnnn4C)CS[C@H]23)c2ccc(O)cc2)C(=O)C1=O [Cefoperazone dihydrate] | 0.936 ± 0.029 | 1.11 ± 0.07
CN(C)CCOc1ccc(/C(=C(/CCCl)c2ccccc2)c2ccccc2)cc1 [Toremifene] | 0.822 ± 0.058 | 0.891 ± 0.027
CC(C(=O)O)c1ccc(N2Cc3ccccc3C2=O)cc1 (stereo not drawn) [Indoprofen] | 1.03 ± 0.029 | 1.05 ± 0.14
CC1=Nc2ccc(Cl)cc2S(=O)(=O)N1 [Diazoxide] | 0.911 ± 0.059 | 1 ± 0.086
Oc1ccc(OCc2ccccc2)cc1 [Monobenzone] | 0.572 ± 0.014 | 0.694 ± 0.019
C[C@H](O)C(=O)Nc1c(I)c(C(=O)NC(CO)CO)c(I)c(C(=O)NC(CO)CO)c1I [Iopamidol] | 0.848 ± 0.081 | 1.06 ± 0.045
CC(C)CC(=O)N[C@H](C(=O)N[C@H](C(=O)N[C@@H](CC(C)C)[C@@H](O)CC(=O)N[C@@H](C)C(=O)N[C@@H](CC(C)C)[C@@H](O)CC(=O)O)C(C)C)C(C)C [Pepstatin A] | 0.873 ± 0.026 | 0.965 ± 0.065
O=C1CC2(CCCC2)CC(=O)N1CCCCN1CCN(c2ncccn2)CC1 [Buspirone hydrochloride] | 0.997 ± 0.038 | 1.083 ± 0.0083
CC[C@H]1OC(=O)[C@H](C)[C@@H](O[C@H]2C[C@@](C)(OC)[C@@H](O)[C@H](C)O2)[C@H](C)[C@@H](O[C@@H]2O[C@H](C)C[C@H](N(C)C)[C@H]2O)[C@](C)(O)C[C@@H](C)[C@@H]2N[C@@H](COCCOC)O[C@H]([C@H]2C)[C@]1(C)O [Dirithromycin] | 1.06 ± 0.092 | 1.03 ± 0.082
Cc1cc(CC(=O)O)n(C)c1C(=O)c1ccc(Cl)cc1 [Zomepirac sodium salt] | 1.06 ± 0.042 | 1.02 ± 0.017
CC1Cc2ccccc2N1NC(=O)c1ccc(Cl)c(S(N)(=O)=O)c1 (stereo not drawn) [Indapamide] | 1 ± 0.029 | 0.996 ± 0.072
O=C(NCC(O)CO)c1c(I)c(C(=O)NCC(O)CO)c(I)c(N(CCO)C(=O)CO)c1I (stereo not drawn) [Ioversol] | 0.892 ± 0.055 | 0.989 ± 0.03
CO/N=C(\C(=O)N[C@@H]1C(=O)N2C(C(=O)O)=C(COC(N)=O)CS[C@H]12)c1ccco1 [Cefuroxime sodium salt] | 0.862 ± 0.052 | 0.957 ± 0.14
Nc1ccc(S(=O)(=O)Nc2ccnn2-c2ccccc2)cc1 [Sulfaphenazole] | 1.07 ± 0.02 | 1.01 ± 0.041
O=C1OCCN1/N=C/c1ccc([N+](=O)[O-])o1 [Furazolidone] | 0.67 ± 0.033 | 0.47 ± 0.052
